# Measured values reported in the supplement of paper PMC11880418.
# Counter-ions that a name gives are not always drawn. This is one part of the list. The data scatter; read single values as rough.
# Legend:
# Test in all cases: ALDHbr (CSC) cell proportion score relative to DMSO vehicle (ratio to DMSO); breast (SUM159) / gastric (MKN45) / pancreatic (PANC1) / colon cancer lines; ALDHbr cells have high ALDH activity and are rich in cancer stem cells (CSC); higher = more CSC (ALDHbr) cells remaining
# Settings in all cases: 10 µM; 72 h
# MKN45 = test system: MKN45
# PANC1 = test system: PANC1
# SUM159 = test system: SUM159
# T84 = test system: T84
# 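Further: High-content imaging of ALDEFLUOR-stained cells with Hoechst-labelled nuclei in 384-well plates, triplicate wells, scored as Z-score against 0.1% DMSO vehicle, negative meaning fewer ALDHbr cells.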
Structure (SMILES),ALDHbr (MKN45),ALDHbr (PANC1),ALDHbr (SUM159),ALDHbr (T84)
O=c1[nH]cnc2c1ncn2[C@H]1CC[C@@H](CO)O1 [Didanosine],0.987,0.976,1.12,1.1
COc1ccc2[nH]c([S+]([O-])Cc3ncc(C)c(OC)c3C)nc2c1 (stereo unspecified) [Omeprazole],1.27,0.888,0.825,0.791
CN(c1nccc(=O)[nH]1)C1CCN(c2nc3ccccc3n2Cc2ccc(F)cc2)CC1 [Mizolastine],1.19,0.575,0.779,0.997
CNCCCN1c2ccccc2CCc2ccccc21 [Desipramine hydrochloride],0.984,0.968,0.759,0.674
CCC(C)(CN(C)C)OC(=O)c1ccccc1 (stereo unspecified) [Amyleine hydrochloride],0.92,0.949,1.43,0.941
OCCN1CCN(CCCN2c3ccccc3Sc3ccc(Cl)cc32)CC1 [Perphenazine],0.734,0.807,0.435,0.157
O=C1OC(CN2CCOCC2)CN1/N=C/c1ccc([N+](=O)[O-])o1 (stereo unspecified) [Furaltadone hydrochloride],0.281,0.589,0.0986,0.349
CCCCS(=O)(=O)N[C@@H](Cc1ccc(OCCCCC2CCNCC2)cc1)C(=O)O [Tirofiban hydrochloride],1.11,1,1.25,0.865
Cc1ncc(C[n+]2csc(CCO)c2C)c(N)n1 [Thiamine hydrochloride],1.02,1.03,1.01,0.942
CN(C)c1cc(NC(=O)CNC(C)(C)C)c(O)c2c1C[C@H]1C[C@H]3[C@H](N(C)C)C(=O)C(C(N)=O)=C(O)[C@@]3(O)C(=O)C1=C2O [Tigecycline],0.793,0.619,0.943,0.961
CC(=O)N(O)CCCCCNC(=O)CCC(=O)N(O)CCCCCNC(=O)CCC(=O)N(O)CCCCCN [Deferoxamine mesylate],0.361,1.14,1.29,0.726
COc1ccccc1OCCNCC(O)COc1cccc2[nH]c3ccccc3c12 (stereo unspecified) [Carvedilol],1.55,0.848,0.749,0.474
Cn1c(=O)c2c(ncn2C)n(C)c1=O [Caffeine],1.06,1.04,0.945,1.06
Cc1c(-c2ccccc2)oc2c(C(=O)OCCN3CCCCC3)cccc2c1=O [Flavoxate hydrochloride],1.05,0.948,0.995,1.21
COc1cc(OC)c(C(=O)CCCN2CCCC2)c(OC)c1 [Buflomedil hydrochloride],0.872,0.898,1.04,1.03
"Cc1c(O)c(=O)n(-c2ccccc2)n1C [Antipyrine, 4-hydroxy]",0.921,0.904,1.31,0.756
Cc1ccc(S(=O)(=O)NC(=O)NN2CC3CCCC3C2)cc1 (stereo unspecified) [Gliclazide],1.03,0.948,0.756,0.971

Structure (SMILES),ALDHbr (MKN45),ALDHbr (PANC1),ALDHbr (SUM159),ALDHbr (T84)
CCCCC(=O)O[C@H]1CC[C@H]2[C@@H]3CCc4cc(O)ccc4[C@H]3CC[C@]12C [Estradiol Valerate],1.11,0.936,1.12,0.879
CC(NCCc1ccc(O)cc1)C(O)c1ccc(O)cc1 (stereo unspecified) [Ritodrine hydrochloride],0.924,0.791,2.37,0.915
CN(C)CCOC(C)(c1ccccc1)c1ccccn1 (stereo unspecified) [Doxylamine succinate],1.07,0.777,1.21,0.893
CNCCC=C1c2ccccc2CCc2ccccc21 [Nortriptyline hydrochloride],0.935,0.867,0.563,0.572
C[C@H](CCC(=O)O)[C@H]1CC[C@H]2[C@@H]3[C@H](O)C[C@@H]4C[C@H](O)CC[C@]4(C)[C@H]3CC[C@]12C [Chenodiol],1.08,0.826,1.03,1.19
Nc1ccc(S(=O)(=O)NC(=O)c2ccccc2)cc1 [Sulfabenzamide],1.3,0.928,1.14,1.1
CCC1(C)CC(=O)NC1=O (stereo unspecified) [Ethosuximide],1.06,0.784,1.06,0.997
CC[C@@H]1C(=O)OC[C@@H]1Cc1cncn1C [Pilocarpine nitrate],1.14,0.988,0.97,0.99
O=C1c2ccccc2C(=O)C1c1ccccc1 [Phenindione],1.17,0.888,1.11,0.784
Nc1c(Br)cc(Br)cc1CN[C@H]1CC[C@H](O)CC1 [Ambroxol hydrochloride],1.02,0.844,1.18,1.07
NS(=O)(=O)c1cc(C(=O)O)cc(N2CCCC2)c1Oc1ccccc1 [Piretanide],1.04,1.03,1.05,1.17
Cc1cc(=O)oc2cc(O)ccc12 [Hymecromone],0.848,0.839,1.24,1
CC[N+](CC)(CC(=O)Nc1c(C)cccc1C)Cc1ccccc1 [Denatonium benzoate],1.26,0.893,0.647,1.08
CCOC(=O)Nc1ccc2c(c1)N(C(=O)CCN1CCOCC1)c1ccccc1S2 [Moricizine hydrochloride],1.4,0.809,0.869,1.03
Nc1ccc(/N=N/c2ccccc2)c(N)n1 [Phenazopyridine hydrochloride],0.68,0.329,1.62,0.877
OC(CCN1CCCC1)(c1ccccc1)C1CCCCC1 (stereo unspecified) [Procyclidine hydrochloride],1.05,1,0.946,1.01
Cc1cc2cc3c(C)cc(=O)oc3c(C)c2o1 [Trioxsalen],0.728,0.75,2.55,0.782
